# Measured values: the supplement of paper PMC12632987
# In all, about 4,500 sequences were measured (“median log2 fold change of GCK-ALFA target abundance (FLAG IP / Myc IP barcode read proportion)”: median about 0.078, lowest 2% from about -0.6 on). Some of the results follow.
# B1: GBRAP_80_6759 (protein)
# chain: SLAELEAALAELEALDPELGARLRAVLERALAAGVSVEVAAETVRALVELYKLDPEKARELAERLIAELEAALAAGDVAAAEAALIDAESDALVEVEELE
# B2: GBRAP_160_4503 (protein)
# chain: MEKKEKAFKYLDEEAELAIEAAKEVSDEDAVKIVEAFAGEMIVYLKEEYGISDEAEDKAMEKVDEIVERLKSIEELTDEDVEEAIQEIRDYFKELIEKES
# B3: GBRAP_160_4063 (protein)
# chain: DEEKEELIEDVEEAKKLILEVIDEEGVEAAIIMFDGEFGSIIMEAASDEEASDELVDELAKIRDEGVEELEKNKDASKEEQKKIVEEAAKKAIEAIKKLY
# B4: GBRAP_160_4484 (protein)
# chain: SEKVEEAKREVRRIVEEMVDAIKEADPETRPAIARAYAGDIAKTAEELGVVNDEEEEEFLKLAEEGGAAIVEASELGPEAMEAAAEELIAKLEEFIREKS
# B5: GBRAP_78_6624 (protein)
# chain: KLEELLDEAIKLLNEAAKIALKLNTPEADELLGELVDAMSDLEEAEEEGGDLEKLKEALKELEEALKIAKKLGNKELEEKLKKAIEKVEKAIKLVEELKK
# B6: GBRAP_160_4695 (protein)
# chain: SETAKKLKEFVKEEFEETKKMIEGESIEQRATIVAGTGGRILMELVENEDAPDELEDEVLKIFDETVEYILANPNLTEEELKELIDEAEEKVKEAIDKYL
# B7: GBRAP_128_3530 (protein)
# chain: SVEEAKKEAEEVVEKIKNSDVEEARKITEEFLEKLKSWTDEEVEAAAEVLEELAPKLTAEKLEAVADTIRERRDEFTPEKQEILADLEVELLNLALEKEE
# B8: GBRAP_139_3703 (protein)
# chain: MSLEEKIEKAKELAKEIKENEEESLEKLVELINSLSEEEAEKAVKAIAEVLAELPLDEFERIADKLLELAKEKIEDEDKVDIIEGVLNGALARKAYAEEL
# B9: GBRAP_125_3124 (protein)
# chain: AEAQALADLAAVLKALGFDDEDVAEAVELAAAHSIRGTLYAALLALGDEEGADLVAKLTEEQTKEVVAAVNAWLKAHPDATPEEVKEKLLALLKEAVAAS
# B10: GBRAP_125_3029 (protein)
# chain: SMEELAEDLGLIAKRLGFSEGDVEELRENALKHGIKGTLIALALAEGNEELAELLEKLSEEEVAEVVRKAAKEILENPDLTPEEVKELLLKLAKEAVEKS
# B11: GBRAP_52_5844 (protein)
# chain: SEEEAREIAKELVELAKEGKEEELKKKIKEIVETLSEEEIMEVLEELAKLAATADPETAEVIWEVAELLAEEALKAGFDELEVSLGLALVGAAVYKAQQR
# B12: GBRAP_125_3121 (protein)
# chain: SMEELLEDLRIVLRALGLDEEDIEEALELARKYGLKGTMIAVAMALGWEEIADLVEKLTEEQVAEAVREVAAYIRANPDLTPEEVKAKLKEVLQEKLAAQ
# B13: GBRAP_83_6873 (protein)
# chain: MEKIVVATTGDHIDSAVDAAIDLHKEEGYDVELEIIATPEDREKVLAAAKRLAEAKVEMEITVILEGATPEEAEELKKEIEEIFKKAGVNNKVEVILVEP
# B14: GBRAP_52_6368 (protein)
# chain: MLEEALEKLREALKAVLEGKREEARKILEEIVENYSEEVILEAARRLAEELLEGTVEEAEAFLELALMLADILDEKGRSEAVGDEIEAIAARTYQTILEK
# B15: GBRAP_26_5462 (protein)
# chain: MDEAFKAAVDAVDAITAKLPDPTAAAGVRTVAYTEIEELEEDIEAGKDIAEAVAAARDAVLAESREILEEAGLDDATIDAVLAALDAVFDALEKDLKAAA
# B16: GBRAP_128_3601 (protein)
# chain: AAEEAAKYAREKMEKIKNSNLEEAKKIAEELAEWLLTLSLEEVKAAVEEIKKLAKELSEEKLLILQDALHEAAKKASPEKAEALLDALGELGEEAYEKEE
# B17: GBRAP_52_5842 (protein)
# chain: MEEEARRLAEELVALAEAGREEELDALIEEIVETLSEEEVMLVLEELARLAAEADPETAEVIFDVADRLADAALAAGFDEMEMSLGLALVGAAVYKALQR
# B18: GBRAP_137_3674 (protein)
# chain: MIDAEIEIEDGLAYAKLTYKGSLEEAKKAAEIAEEIAAKIPGLAVSTKVEEDGTLTIDVGGTLEQVMKFLKELAKALNVTINVTIKNEDTGETTEETIKA
# B19: GBRAP_160_4079 (protein)
# chain: SELTEKTKEEIKELIEEAYEFMIESNQEERIAIARVMAGDILMEVLENPKVSDEAEEKIDEILDETVEKIEKTKGISDEELKELLEKLAEEISKILDEEE
# B20: GBRAP_139_3707 (protein)
# chain: SALEELIAEARRLTREMREDPEAALEALVELLLSVSEEELEVLVEAIAEELSRLPLDEAEELADRLLELVEERFKDEDKIDIVEAVLNGALARKAAEEEA
# B21: GBRAP_11_2700 (protein)
# chain: KKEQLKEARELAEKLAEVLDKLIKEGPDNEELLKEAEELLKKIEELTKKYGDEGAKKLTEIIKELWEEAKKDKENQVQYLKEARAAARVLAGQFLLEIEE
# B22: GBRAP_52_6195 (protein)
# chain: MRERMRKLAQEIVELVKAGKREEARKMMRELARTLSEEELRLLGEEFAEIAREARPEDFDAVFEAAEMMADVLEEEGHDEVLADDLLARVAAALYERELA
# B23: GBRAP_52_5897 (protein)
# chain: ATERLVRLLLEAAELVAAGDEEGAKEKIREAIKEGAKLTEEEVRAAIARAAERLAGLPQEVLERLLELVLEVYDEDDDLTDEERAVLGDIAAALARLILA
# B24: GBRAP_125_3010 (protein)
# chain: GMAEVAAALGRIAAALGFSPEDVAELEELARKHGLKGTFYALLLALGQEELADLVEQLTEEQVAEVVLEVAAELEANPDLTPEEVVALIREVLERALAKQ
# B25: GBRAP_95_7047 (protein)
# chain: EDLELALESTQEVLQTYLDLGNEEQAERAAERAVELAVEGGILPFSSSLSEEALLLIARAAARRLDEETVAALVEALVAAAGDEAVRERLEAVVAEVRAE
# B26: GBRAP_57_6440 (protein)
# chain: MSRVEKAKKLAEEIKKALEEGAPKEEILELFRKLLELLSRESLLDVALLVDPSTREDASREELIERLLELFERALEEEGKEKALEIVDLVEGEIEMEESE
# B27: GBRAP_160_4023 (protein)
# chain: SESVKKIIEDFKKEVELILENAKEMDEKTIAGALRTAVGQAIMDMSEDPNMKDATREEVDELDKLAEETAKILSKGDEEEAKKAAEELLKKVAKVVEKAA
# B28: GBRAP_95_7036 (protein)
# chain: EDDQLALESAIEVAITLADLGDAEAAARAALEALRLLREGGVIPIDPELARELIRVLREVLVDVLPAEEVAELLEAIREAAEDPEVRAEAEEALAEVRAR
# B29: GBRAP_160_4590 (protein)
# chain: SEALEKMKKIVDEELEEAKEMIEGETAEQRATIIAGAGGEIIWELSEDPTASDELLDKVDEIIDEAVDTVLANPDLTLEEVKELIDEAREKIKEAIKESF
# Target: GABARAP, O95166
# Test: median log2 fold change of GCK-ALFA target abundance (FLAG IP / Myc IP barcode read proportion) (log2 ratio); each designed protein is fused to an ALFA-tag nanobody in HEK293 cells to bring the named protein to FLAG-tagged glucokinase (GCK); Myc marks an untargeted standard; higher = target protein stabilised (more abundant)
# Conditions: target protein: 3xFLAG-MCP-GCK-ALFA reporter; HEK293 landing pad (RPLP)
# Procedure, shortened: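 HEK293 landing-pad cells received a recombined binder library fused to the ALFA nanobody and were induced with 2 μg mL^−1 doxycycline, then transfected with a plasmid encoding a FLAG-tagged target and a Myc-tagged standard. Lysates were collected after 48 h for anti-FLAG and anti-Myc immunoprecipitation, and the circular RNA barcodes were reverse transcribed, amplified and sequenced. Target abundance for each binder is the median log2 ratio of FLAG to Myc barcode read proportions. Barcodes had to reach a proportion of at least 10^−7 in both replicates, each binder needed at least 3 barcodes per replicate, a pseudocount of 10^−6 was applied, and the two replicates were pooled.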
# GABARAP, O95166, sequence (O95166 whole entry, the tested form may be a part): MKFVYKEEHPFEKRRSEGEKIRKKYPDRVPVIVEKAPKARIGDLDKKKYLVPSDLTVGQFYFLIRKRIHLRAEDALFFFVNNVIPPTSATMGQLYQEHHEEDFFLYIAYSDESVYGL
row,Binder,median log2 fold change
1,B1,0.0898
2,B2,0.161
3,B3,0.146
4,B4,0.417
5,B5,0.0665
6,B6,-0.283
7,B7,-0.0321
8,B8,0.211
9,B9,-0.452
10,B10,0.277
11,B11,-0.217
12,B12,-0.154
13,B13,0.372
14,B14,0.0369
15,B15,0.113
16,B16,0.196
17,B17,-0.837
18,B18,0.252
19,B19,-0.112
20,B20,-0.0884
21,B21,0.12
22,B22,-0.0573
23,B23,-0.588
24,B24,-0.0499
25,B25,0.318
26,B26,0.179
27,B27,0.203
28,B28,-0.00145
29,B29,-0.188
